According to PMC10904043:
These are yes or no findings as the source states them, for the method shown. For some of these results: Binding seen in cells or lysates may run through a third protein. Some results given as binding are weak or reduced against the parent protein; the word gives no strength.

Protein sequences, listed by entry. Tags and fused reporters are not part of them. Residues count along the entry.
UniProt P16671: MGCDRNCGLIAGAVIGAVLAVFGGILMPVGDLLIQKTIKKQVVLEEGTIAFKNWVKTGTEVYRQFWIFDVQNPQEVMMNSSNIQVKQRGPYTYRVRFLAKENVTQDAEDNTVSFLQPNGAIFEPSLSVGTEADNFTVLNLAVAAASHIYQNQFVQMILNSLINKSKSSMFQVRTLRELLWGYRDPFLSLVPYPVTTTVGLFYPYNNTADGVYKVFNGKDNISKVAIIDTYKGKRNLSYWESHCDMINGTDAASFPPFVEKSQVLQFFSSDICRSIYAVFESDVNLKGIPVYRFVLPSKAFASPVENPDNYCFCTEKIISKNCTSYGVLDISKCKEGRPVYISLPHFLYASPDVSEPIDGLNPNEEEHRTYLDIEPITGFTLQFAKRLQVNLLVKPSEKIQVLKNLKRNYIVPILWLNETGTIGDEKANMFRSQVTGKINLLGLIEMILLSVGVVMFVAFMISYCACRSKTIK
UniProt P04114, residues 28-4563: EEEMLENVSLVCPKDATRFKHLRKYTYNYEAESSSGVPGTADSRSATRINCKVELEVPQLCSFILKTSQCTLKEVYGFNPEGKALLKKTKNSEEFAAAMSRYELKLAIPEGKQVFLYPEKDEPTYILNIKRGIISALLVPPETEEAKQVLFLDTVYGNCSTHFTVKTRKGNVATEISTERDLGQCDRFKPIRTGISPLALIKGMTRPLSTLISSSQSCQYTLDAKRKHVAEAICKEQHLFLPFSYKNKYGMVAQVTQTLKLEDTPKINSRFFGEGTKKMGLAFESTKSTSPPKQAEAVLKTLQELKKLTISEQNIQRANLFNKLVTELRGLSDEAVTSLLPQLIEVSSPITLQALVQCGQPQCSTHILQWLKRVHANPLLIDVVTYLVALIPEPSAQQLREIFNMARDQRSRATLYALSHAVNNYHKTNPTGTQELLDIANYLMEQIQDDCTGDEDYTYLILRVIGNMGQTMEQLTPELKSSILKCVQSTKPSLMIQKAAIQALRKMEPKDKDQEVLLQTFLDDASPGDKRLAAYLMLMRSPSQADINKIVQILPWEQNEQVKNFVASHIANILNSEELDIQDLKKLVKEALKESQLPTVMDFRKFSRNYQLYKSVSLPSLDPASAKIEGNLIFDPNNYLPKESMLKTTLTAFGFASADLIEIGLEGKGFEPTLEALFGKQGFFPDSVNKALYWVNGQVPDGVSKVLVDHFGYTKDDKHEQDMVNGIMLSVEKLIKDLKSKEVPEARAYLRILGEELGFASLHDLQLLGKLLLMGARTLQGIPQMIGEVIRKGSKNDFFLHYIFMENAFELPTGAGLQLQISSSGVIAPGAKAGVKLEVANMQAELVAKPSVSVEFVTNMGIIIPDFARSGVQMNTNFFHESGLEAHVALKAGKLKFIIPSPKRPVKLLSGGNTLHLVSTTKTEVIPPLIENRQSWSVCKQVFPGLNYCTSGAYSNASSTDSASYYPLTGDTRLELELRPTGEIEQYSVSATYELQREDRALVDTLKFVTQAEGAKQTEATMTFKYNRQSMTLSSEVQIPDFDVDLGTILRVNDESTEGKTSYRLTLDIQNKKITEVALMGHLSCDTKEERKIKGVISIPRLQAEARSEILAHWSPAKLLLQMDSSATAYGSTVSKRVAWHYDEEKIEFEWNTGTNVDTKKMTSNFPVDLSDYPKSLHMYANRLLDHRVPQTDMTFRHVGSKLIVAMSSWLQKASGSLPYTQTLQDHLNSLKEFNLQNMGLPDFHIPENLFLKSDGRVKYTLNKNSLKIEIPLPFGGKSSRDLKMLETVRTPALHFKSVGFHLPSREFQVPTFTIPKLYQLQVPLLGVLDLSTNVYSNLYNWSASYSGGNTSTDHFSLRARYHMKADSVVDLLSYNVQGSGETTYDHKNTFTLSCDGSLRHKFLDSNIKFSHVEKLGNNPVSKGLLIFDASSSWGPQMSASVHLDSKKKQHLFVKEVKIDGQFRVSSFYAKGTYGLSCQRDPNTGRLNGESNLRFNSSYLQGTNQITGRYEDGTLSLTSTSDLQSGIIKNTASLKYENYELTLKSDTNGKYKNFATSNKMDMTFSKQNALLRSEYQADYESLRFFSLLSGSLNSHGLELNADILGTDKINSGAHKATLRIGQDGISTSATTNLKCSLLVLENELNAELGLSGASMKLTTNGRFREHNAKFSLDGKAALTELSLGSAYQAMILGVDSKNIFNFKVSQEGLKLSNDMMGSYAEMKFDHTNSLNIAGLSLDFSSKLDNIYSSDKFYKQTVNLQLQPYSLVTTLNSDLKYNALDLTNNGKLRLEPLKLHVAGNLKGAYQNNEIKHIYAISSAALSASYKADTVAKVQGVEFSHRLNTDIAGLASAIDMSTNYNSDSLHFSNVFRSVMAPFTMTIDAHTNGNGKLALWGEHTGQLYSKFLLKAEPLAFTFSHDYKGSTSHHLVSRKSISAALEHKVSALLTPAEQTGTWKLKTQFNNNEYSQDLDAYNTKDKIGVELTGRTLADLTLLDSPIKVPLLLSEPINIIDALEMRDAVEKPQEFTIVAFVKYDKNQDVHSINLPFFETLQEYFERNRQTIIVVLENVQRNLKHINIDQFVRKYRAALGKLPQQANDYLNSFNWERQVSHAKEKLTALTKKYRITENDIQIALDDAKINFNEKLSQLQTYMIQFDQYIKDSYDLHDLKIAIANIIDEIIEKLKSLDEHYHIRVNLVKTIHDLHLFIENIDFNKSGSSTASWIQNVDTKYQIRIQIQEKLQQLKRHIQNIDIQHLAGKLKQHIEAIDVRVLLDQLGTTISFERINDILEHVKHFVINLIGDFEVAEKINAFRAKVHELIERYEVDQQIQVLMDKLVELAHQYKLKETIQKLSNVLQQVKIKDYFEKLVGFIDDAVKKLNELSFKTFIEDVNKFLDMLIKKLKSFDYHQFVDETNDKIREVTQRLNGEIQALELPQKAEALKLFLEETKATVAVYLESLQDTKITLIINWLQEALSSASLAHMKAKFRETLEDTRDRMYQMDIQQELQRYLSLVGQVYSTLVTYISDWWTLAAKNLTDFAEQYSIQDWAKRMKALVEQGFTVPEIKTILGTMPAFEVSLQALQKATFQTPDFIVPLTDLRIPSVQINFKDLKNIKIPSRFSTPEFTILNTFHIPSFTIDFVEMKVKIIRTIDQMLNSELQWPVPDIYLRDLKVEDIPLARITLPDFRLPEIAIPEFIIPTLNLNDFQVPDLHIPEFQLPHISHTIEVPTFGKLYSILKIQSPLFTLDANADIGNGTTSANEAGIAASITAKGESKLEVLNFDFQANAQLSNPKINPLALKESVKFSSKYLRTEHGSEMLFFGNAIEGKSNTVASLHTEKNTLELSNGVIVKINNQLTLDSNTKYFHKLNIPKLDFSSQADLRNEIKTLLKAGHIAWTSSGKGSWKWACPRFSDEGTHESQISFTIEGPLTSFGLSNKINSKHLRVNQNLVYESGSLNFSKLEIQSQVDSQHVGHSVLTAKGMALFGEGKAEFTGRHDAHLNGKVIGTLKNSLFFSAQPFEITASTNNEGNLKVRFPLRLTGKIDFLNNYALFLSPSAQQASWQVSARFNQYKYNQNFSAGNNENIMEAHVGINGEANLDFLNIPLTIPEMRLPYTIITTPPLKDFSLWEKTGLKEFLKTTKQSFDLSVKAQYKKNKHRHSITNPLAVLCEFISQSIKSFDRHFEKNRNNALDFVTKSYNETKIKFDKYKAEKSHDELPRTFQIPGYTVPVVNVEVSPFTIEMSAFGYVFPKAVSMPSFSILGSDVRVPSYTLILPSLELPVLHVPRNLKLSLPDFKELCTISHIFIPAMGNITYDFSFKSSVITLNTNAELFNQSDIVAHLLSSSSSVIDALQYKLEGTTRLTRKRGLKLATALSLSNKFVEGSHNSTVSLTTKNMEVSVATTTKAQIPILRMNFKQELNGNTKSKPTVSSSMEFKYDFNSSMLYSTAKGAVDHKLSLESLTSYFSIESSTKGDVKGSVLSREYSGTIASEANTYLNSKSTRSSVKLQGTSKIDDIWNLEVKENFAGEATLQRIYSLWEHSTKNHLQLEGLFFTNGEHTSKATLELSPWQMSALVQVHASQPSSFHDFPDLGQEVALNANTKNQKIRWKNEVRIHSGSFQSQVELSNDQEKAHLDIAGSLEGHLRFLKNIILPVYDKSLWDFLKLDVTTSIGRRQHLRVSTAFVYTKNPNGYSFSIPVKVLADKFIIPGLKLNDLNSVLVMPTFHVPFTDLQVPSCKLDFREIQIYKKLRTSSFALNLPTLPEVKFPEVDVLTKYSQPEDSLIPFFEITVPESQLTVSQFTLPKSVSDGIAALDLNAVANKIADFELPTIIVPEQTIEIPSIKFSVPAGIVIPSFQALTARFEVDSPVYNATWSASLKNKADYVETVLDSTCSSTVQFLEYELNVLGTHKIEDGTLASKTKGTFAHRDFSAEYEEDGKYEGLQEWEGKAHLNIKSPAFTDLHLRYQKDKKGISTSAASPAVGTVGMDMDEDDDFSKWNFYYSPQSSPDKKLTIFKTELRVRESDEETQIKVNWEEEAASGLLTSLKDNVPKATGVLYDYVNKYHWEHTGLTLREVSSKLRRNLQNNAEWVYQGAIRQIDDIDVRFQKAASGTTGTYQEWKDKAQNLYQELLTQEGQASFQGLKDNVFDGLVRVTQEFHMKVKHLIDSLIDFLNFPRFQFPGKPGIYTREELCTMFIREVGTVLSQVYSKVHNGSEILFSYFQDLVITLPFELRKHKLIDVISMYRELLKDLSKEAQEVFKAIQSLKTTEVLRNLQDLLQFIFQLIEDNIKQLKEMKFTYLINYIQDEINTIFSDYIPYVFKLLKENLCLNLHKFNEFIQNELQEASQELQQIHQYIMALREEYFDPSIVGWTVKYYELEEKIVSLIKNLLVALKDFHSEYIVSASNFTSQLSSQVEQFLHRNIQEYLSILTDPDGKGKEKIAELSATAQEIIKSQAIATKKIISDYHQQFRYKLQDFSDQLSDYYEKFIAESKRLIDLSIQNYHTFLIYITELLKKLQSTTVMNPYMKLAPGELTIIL

Experiments:
[1] = target: LDL receptor (LDLR) (human (endogenous in THP-1 and HMDMs)) (UniProt P01130); assay: proximity ligation; THP-1 cells treated with peptide (LL37 or Cramp) with or without LDL; PLA between the peptide and LDL receptors (spatial correlation <40 nm); only the binder purified
[2] = target: T1, scavenger receptor class B member 1 (SR-B1) (human (endogenous in THP-1 and HMDMs)) (UniProt Q8WTV0); assay: as above
T1 sequence: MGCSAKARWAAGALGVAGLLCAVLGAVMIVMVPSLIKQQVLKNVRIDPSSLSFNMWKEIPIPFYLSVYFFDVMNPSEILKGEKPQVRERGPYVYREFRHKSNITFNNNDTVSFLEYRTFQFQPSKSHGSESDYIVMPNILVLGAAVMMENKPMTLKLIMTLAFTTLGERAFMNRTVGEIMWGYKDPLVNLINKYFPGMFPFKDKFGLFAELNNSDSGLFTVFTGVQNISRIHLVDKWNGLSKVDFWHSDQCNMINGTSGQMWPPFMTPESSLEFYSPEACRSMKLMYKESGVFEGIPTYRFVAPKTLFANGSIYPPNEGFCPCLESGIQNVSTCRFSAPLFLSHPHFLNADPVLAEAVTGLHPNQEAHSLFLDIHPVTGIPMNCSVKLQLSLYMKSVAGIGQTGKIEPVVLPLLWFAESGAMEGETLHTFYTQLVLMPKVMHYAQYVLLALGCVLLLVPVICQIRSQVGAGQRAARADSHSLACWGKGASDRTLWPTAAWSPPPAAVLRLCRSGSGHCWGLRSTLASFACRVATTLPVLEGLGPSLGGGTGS

[3] = target: CD36 (human (endogenous in THP-1 and HMDMs)) (UniProt P16671); assay: as above
[4] = target: biotinylated LDL (low density lipoprotein particle) (UniProt P04114); assay: pull-down; mixture of biotinylated LDL and peptide; pulldown of LDL, immunoblot with anti-LL37 or anti-Cramp (the paper calls it coimmunoprecipitation); phosphatidylcholine did not block the binding of LL37; both purified

B1: Cramp, mouse cathelicidin mature peptide (peptide, UniProt P51437 135-172)
peptide: ISRLAGLLRKGGEKIGEKLKKIGQKIKNFFQKLVPQPE
binding [1]: binds | binding [2]: binds | binding [3]: binds | binding [4]: no binding
